Laboratory results as given in the BET-seq Pho4 binding data (Le et al. 2018).
The list shows a part of the results. These are noisy estimates, calculated here from bound and input reads.

These sequences were tested against T1, Pho4 (S. cerevisiae) (UniProt P07270) (assay: relative binding free energy (BET-seq); higher = weaker binding). Details: reference: library average.
T1 sequence: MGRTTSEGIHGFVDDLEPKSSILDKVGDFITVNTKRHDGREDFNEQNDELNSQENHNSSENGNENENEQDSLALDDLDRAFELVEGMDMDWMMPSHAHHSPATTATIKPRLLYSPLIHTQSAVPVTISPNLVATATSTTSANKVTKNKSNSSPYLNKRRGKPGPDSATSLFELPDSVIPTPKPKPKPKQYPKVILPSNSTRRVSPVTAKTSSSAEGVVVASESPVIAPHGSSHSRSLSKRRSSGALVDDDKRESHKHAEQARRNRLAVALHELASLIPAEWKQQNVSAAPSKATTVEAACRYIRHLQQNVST

Sequence | relative binding free energy [kcal/mol]
GGAGTCACGTGTTTTA | 0.07
TCCGTCACGTGGGCTT | 0.17
GGTCTCACGTGGTTAG | 0.2
GGGTTCACGTGCGATT | 0.31
GGCCTCACGTGGTAGT | 0.19
TCGCGCACGTGTGGGC | 0.03
GCTGGCACGTGTGAGT | -0.02
TTTTTCACGTGCGCGT | 0.23
GAAGTCACGTGCGTGG | 0.01
AGTCTCACGTGAGAGT | 0.57
AGTGTCACGTGGTTTC | 0.14
GTGATCACGTGTTGAT | 0.01
GTTGTCACGTGTTGAT | 0.06
AGGGGCACGTGTATGC | -0.14
TCTGGCACGTGTGCGG | 0
CTAGTCACGTGTGGTG | 0.01
GATAGCACGTGTAGGT | 0.05
CGTTGCACGTGGAGGT | 0.06
TATGGCACGTGATAGG | -0.15
GTGGACACGTGGGTAG | 0.01
AAGTGCACGTGGCATT | -0.09
TGGCACACGTGAGTGT | 0.27
GGTTGCACGTGGAGGG | -0.04

Sequence | relative binding free energy [kcal/mol]
TGGCCCACGTGGGGGA | -0.32
AGGCTCACGTGGTGAT | 0.05
TACATCACGTGATTGT | 0.18
GGATACACGTGTGTAA | 0.07
AGAGGCACGTGTAGAG | -0.1
TATTGCACGTGTATAT | -0.01
TGTCTCACGTGGAGAG | 0.06
GGATACACGTGAGTGG | 0.21
AGTTGCACGTGTTTAG | 0.03
TCATTCACGTGCTGGT | 0.27
ATTGCCACGTGTTAGG | -0.16
TTTGTCACGTGAGGAT | 0.3
AATATCACGTGTCGTG | 0.1
CGGGTCACGTGGGTAC | -0.01
TAAATCACGTGTGGCG | 0.24
AGGGACACGTGCTTGA | -0.07
AGTGACACGTGTGGTG | 0.04
TGTATCACGTGGTTTG | 0.11
GTAATCACGTGGGGGC | 0.06
TTTTGCACGTGAGTGA | 0.21
TTGGACACGTGATGTG | 0.19
TTTTCCACGTGTTGTA | -0.01
AGAGGCACGTGGGGGG | -0.22

Sequence | relative binding free energy [kcal/mol]
TTCGTCACGTGGGGCA | -0.13
TTCTGCACGTGGGGAT | -0.02
TGGTTCACGTGGGGGG | 0.2
TGTTGCACGTGTATGA | 0
TGTGGCACGTGCTACG | -0.2
TTTAACACGTGATGTT | 0.25
TTAAACACGTGTGTAA | 0.05
TAAAACACGTGATGGA | 0.25
AGGTGCACGTGGTTGC | -0.07
TATGGCACGTGACAGT | -0.02
GGAGACACGTGGTGCT | 0.06
GGGCGCACGTGGATGA | -0.11
GAATGCACGTGTGTAT | 0.21
GCTTTCACGTGAATGT | 0.44
AGGGACACGTGTTACG | 0.08
ATGTTCACGTGTCGGT | 0.43
TACAGCACGTGTAGTT | -0.01
GGTGACACGTGGAGGT | 0.05
AAAGGCACGTGCGTTT | -0.15
GCGTGCACGTGTTGTG | -0.06
TATAGCACGTGTGTGT | 0.01
TCCTTCACGTGGTGTA | 0.26
ATGTCCACGTGATATT | 0.15

Sequence | relative binding free energy [kcal/mol]
AGTATCACGTGGTGAG | 0.06
GTTCTCACGTGGTGTG | 0.19
TGGTACACGTGGAGCA | -0.03
GGCTTCACGTGGAGTA | 0.22
CGTGGCACGTGTTGAT | -0.05
GTTAACACGTGTGCGT | 0.14
ATTAACACGTGTTGGT | 0.06
TGGTTCACGTGGGATG | 0.28
TAGATCACGTGTGTTG | 0.04
TGTTACACGTGATTGA | 0.06
GTTGACACGTGAATAG | 0.06
GGCGTCACGTGTAAGG | 0.26
TTTATCACGTGTGCAA | 0.01
ACGGTCACGTGTTGAT | 0.03
TGTTTCACGTGTCGCG | 0.22
TTGTACACGTGTAGGA | 0.05
TAGGACACGTGATAAG | 0.15
TATGCCACGTGTGAAG | -0.04
GATGGCACGTGTTGAG | -0.02
ACTTGCACGTGGATTT | 0.1
TGACGCACGTGGGGCC | -0.05
GGTATCACGTGTGAGG | 0.33
AGCGTCACGTGTTGGG | -0.01

Sequence | relative binding free energy [kcal/mol]
TTATGCACGTGCCGGA | 0
TGATTCACGTGTGATG | 0.28
AATGTCACGTGGATGA | 0.11
GCTAGCACGTGGGGGA | -0.08
CGTTGCACGTGAATTT | 0.26
TTTGACACGTGGTGAG | -0.02
GTGGTCACGTGTGGCG | 0.09
GCTTGCACGTGGCGAG | -0.01
GTAGGCACGTGCTGCG | -0.1
ATGGACACGTGGCGAT | 0.03
TGAAGCACGTGAGGCT | 0.14
TGACGCACGTGGTTTT | -0.2
TGGTTCACGTGTGGAA | 0.32
AGTGTCACGTGATGTT | 0.14
TCGATCACGTGGTGGG | 0.13
ATAATCACGTGAGTAA | 0.41
AAATTCACGTGGTTTC | 0.38
GGTGCCACGTGTTTCG | 0.08
ATTGCCACGTGTATGG | 0
GGTGGCACGTGGGTTA | -0.21
AGATACACGTGTGGAT | 0.13
TCTGGCACGTGATTGT | -0.01
TGTCGCACGTGCGGCG | -0.06
